Reference: patent US20260209325A1, “SELECTIVE AND POTENT INHIBITORY ANTIBODIES OF MYOSTATIN ACTIVATION” (SCHOLAR ROCK, INC., priority 2022, published 2026)
Substitutions are numbered along the chain they refer to. Values belong to the molecule of their own block, whether it stands above or below them.

Key:
[1] = AC-SINS self-interaction (aggregation behavior); type: physicochemical; conditions: cutoff: shift of >5 nm in plasmon wavelength
Protocol: Developability profiles may be assessed by well-known parameters. […] In some embodiments, antibodies are tested for aggregation behavior by affinity capture self-interaction nanoparticle spectroscopy (AC-SINS). […] Typically, gold nanoparticles are coated with polyclonal antibodies that are specific for human monoclonal antibodies and the monoclonal antibodies are captured by the conjugates. The polyvalency of the monoclonal antibody conjugates amplifies the attractive self-interactions, i.e., aggregation between the adsorbed antibodies. This leads to reduced inter-particle separation distances and is detected by a change in color of the gold colloid solution, which may be quantified by a change in the wavelength of maximum absorbance (plasmon wavelength). Plasmon wavelength of 530 nm may be used as the reported value for unaggregated gold nanoparticles. Antibodies with a tendency to self-aggregate shift the plasmon wavelength toward the red end of the spectrum. In some embodiments, a shift of greater than 5 nm (i.e., >5 nm) in plasmon wavelength may be used as the cutoff indicative of self-interacting antibodies.
The antibodies were tested for aggregation behavior by affinity capture self-interaction nanoparticle spectroscopy (AC-SINS). Gold nanoparticles were coated with polyclonal antibodies that are specific for human monoclonal antibodies and the monoclonal antibodies are captured by the conjugates. The polyvalency of the monoclonal antibody conjugates amplifies the attractive self-interactions, i.e., aggregation between the adsorbed antibodies. This leads to reduced inter-particle separation distances and is detected by a change in color of the gold colloid solution, which was quantified by a change in the wavelength of maximum absorbance (plasmon wavelength). Plasmon wavelength of 530 nm was used as the reported value for unaggregated gold nanoparticles. Antibodies with a tendency to self-aggregate shift the plasmon wavelength toward the red end of the spectrum. A shift of greater than 5 nm (i.e., >5 nm) in plasmon wavelength was used as the cutoff indicative of self-interacting antibodies.

human pro-myostatin [2] = target: T1, human pro-myostatin (Homo sapiens, UniProt O14793); assay: Biacore 8k SPR binding affinity, human pro-myostatin
Excerpt: (§1) The Biacore™ 8k SPR system was utilized to evaluate the binding affinity of myostatin antibodies to biotinylated human, murine, and cyno pro-myostatin. Biotin CAPture kit and sensor chips (Cytiva) were utilized in these experiments to immobilize the various antigens, followed by flowing a range of concentrations of each of the test antibodies.

cyno pro-myostatin = cyno pro-myostatin (Macaca fascicularis, UniProt Q95J86); assay: Biacore 8k SPR binding affinity, cyno pro-myostatin; set-up: species or system cynomolgus monkey
Excerpt: as §1

total myostatin = assay: circulating total myostatin in serum by ELISA after acidification, dexamethasone study; type: in vivo, mouse; conditions: statement in description
Protocol: An assay of the target engagement of the antibodies, i.e., a pharmacodynamic assay, can be performed by measuring the binding of the antibodies to myostatin. In some embodiments, myostatin is detected as described by Lakshman et al. (Mol. Cell. Endocrinol. (2009) 302(1): 26-32), the contents of which are incorporated herein in their entirety. In some embodiments, samples are treated with acid to convert all myostatin forms to the mature growth factor; a biotinylated capture antibody that is specific for mature myostatin is added to a streptavidin coated plate and detected with a labeled antibody that is specific for mature myostatin.
Briefly, serum samples were acidified at low pH (e.g., pH ~2.5) to dissociate the bound antibody from the immune complex and to convert all myostatin in the sample to the active form of growth factor (i.e., mature myostatin). Samples were then neutralized and assayed for the presence of mature myostatin on ELISA plates coated with anti-mature myostatin antibodies as capture reagents.

[3] = dexamethasone-induced muscle atrophy mouse model; type: in vivo; conditions: dexamethasone treated mice
Excerpt: To evaluate in vivo efficacy of the novel myostatin-selective inhibitors disclosed herein, the ability of the antibodies to preserve lean muscle mass was examined in a dexamethasone-induced atrophy mouse model. An excess of glucocorticoids directly stimulates myostatin production via interactions with a glucocorticoid response element in the myostatin promoter, thus inducing loss of muscle mass. As shown herein, antibodies of the disclosure prevented glucocorticoid-induced muscle atrophy.
C57BL6 male mice (n=8) at 13-14 weeks of age were given normal drinking water or water containing dexamethasone at a concentration of 2.5 mg/kg (17.5 grams dexamethasone per liter of drinking water) to induce atrophy. […] Body weight was measured daily. Body composition was measured by qNMR to determine lean mass pre-dosing, at day 7, and at day 14. After 14 days of dexamethasone exposure, the animals were terminated, and body weight and gastrocnemius weight were measured. Terminal blood for each animal was also collected.
C57BL6 male mice (n=8) at 13-14 weeks of age were given normal drinking water or water containing dexamethasone at a concentration of 2.5 mg/kg to induce atrophy. Mice were dosed at day 1 and day 7 with vehicle (PBS), IgG control (“hIgG”) or different doses of the test antibodies, as shown in Table 13. Muscle mass at days −1, 6 and 13 was measured using qNMR. At the end of the study (day 14), serum from each animal was collected and changes in body weight, body composition (qNMR), left and right gastrocnemius weight, and left and right quadriceps weight were measured. Statistical analysis was performed by ANOVA (Dunnett's multiple comparison test).
In a third experiment, antibody doses ranging from 0.3 mg/kg to 10 mg/kg were compared for their effectiveness in attenuating dexamethasone-induced atrophy. C57BL6 male mice (n=8) at 13-14 weeks of age were given normal drinking water or water containing dexamethasone at a concentration of 2.5 mg/kg to induce atrophy. Mice were dosed at day 1 and day 7 with vehicle (PBS), human IgG control (“hIgG”) or different doses of the test antibodies, as shown in Table 14 below. qNMR was used to measure muscle mass at days −1, 6 and 13. At day 14 the study ended, serum was collected and changes in body composition (qNMR), left and right gastrocnemius weight, and left and right quadriceps weight were determined. Circulating myostatin was measured in the serum of a terminal bleed taken at day 14. Statistical analysis was performed by ANOVA (Dunnett's multiple comparison test).
In a fourth experiment, antibodies Ab109 and Ab133 were compared to control human IgG and Ab2 in the same protocol as described above.

murine pro-myostatin = murine pro-myostatin (Mus musculus, UniProt O08689); assay: Biacore 8k SPR binding affinity, murine pro-myostatin
Excerpt: as §1

human pro-myostatin [4] = target: T1, human pro-myostatin; assay: SEC-MALS binding stoichiometry; conditions: for Observed Molecular Weight / Predicted Molecular Weight / Difference Observed vs. Predicted: mAb:pro-myostatin complex; for Difference Observed vs. Predicted: < / > = observed below / above predicted
Protocol: A combination of size exclusion chromatography and multi-angle light scattering (SEC-MALS) was used to determine the approximate mass and therefore the oligomeric state of the antibodies and their stoichiometry of binding to human promyostatin. The monoclonal antibody (mAb) or its Fab fragment was mixed with 50 μg of human pro-myostatin at a ratio of 1:1, 2:1 or 3:1 (antibody to antigen) for at least 24 hours at room temperature for immune complexes to form, filtered and injected into an analytical SEC column (Waters HPLC with a Superdex 200 10/300), flowed through a refractive index detector and then a miniDAWN® multi-angle light scattering detector to determine the mass. A full-length human-pro-myostatin with an N-terminal His6 tag (SEQ ID NO: 941) was used to express pro-myostatin in HEK cells. The signal peptide present in the construct is cleaved during biosynthesis. The resulting recombinant human pro myostatin was purified using the His6 tag (SEQ ID NO: 941) and used for the experiment.

Ka (human pro-myostatin [2]): 6.49e+06 M⁻¹ s⁻¹ | Kd (1/s) (human pro-myostatin [2]): 0.000376 s⁻¹ | Ka (cyno pro-myostatin): 6.8e+06 M⁻¹ s⁻¹ | Kd (1/s) (cyno pro-myostatin): 0.000335 s⁻¹ | Ka (murine pro-myostatin): 6.11e+06 M⁻¹ s⁻¹ | Kd (1/s) (murine pro-myostatin): 0.0005 s⁻¹
B1: Ab102: anti-pro/latent myostatin antibody; CDR sequences in Table 2d (antibody)
heavy: EVQLVESGGGLVQPGGSLRLSCAASGFTFTSYGMSWVRQAPGKGLELVASITGSGGETYYPDSVKGRFTISRDNAKNSLYLQMNSLRAEDTAVYYCARDLLVRFLEWSHYYGMDVWGQGTTVTVSSASTKGPSVFPLAPCSRSTSESTAALGCLVKDYFPEPVTVSWNSGALTSGVHTFPAVLQSSGLYSLSSVVTVPSSSLGTKTYTCNVDHKPSNTKVDKRV[human IgG4 Fc with S228P (EU numbers) left out]
light: DIVMTQSPLSLPVTPGEPASISCRSSQSLLHSSGHNFLHWYLQKPGQSPQLLIYETSNRAPGIPDRFSGSGSGTDFTLKISRVEAEDVGVYYCMQATQFPRPFGGGTKVEIKRTVAAPSVFIFPPSDEQLKSGTASVVCLLNNFYPREAKVQWKVDNALQSGNSQESVTEQDSKDSTYSLSSTLTLSKADYEKHKVYACEVTHQGLSSPVTKSFNRGEC
aggregation behavior by AC-SINS [1]: did not display aggregation behavior | accumulation of myostatin in serum of dosed subjects, compared with apitegromab (total myostatin): reduced accumulation of circulating latent myostatin | maintenance of body weight (percent change from baseline) ([3]; antibody 3 mg/kg/day, FIG. 6A, 9A): to a greater extent than Ab2 | preservation of lean mass by qNMR ([3]; antibody 3 mg/kg/day, FIG. 6B, 9B): to a greater degree than the 10 mg/kg/day dose of Ab2 | preservation of gastrocnemius weight ([3]; antibody 3 mg/kg/day, FIG. 6C, 9C): highly effective in preserving gastrocnemius weight

Observed Molecular Weight (human pro-myostatin [4]; Peak 1): 405.0 kDa | Predicted Molecular Weight (human pro-myostatin [4]; Peak 1): 398.99 kDa | Difference Observed vs. Predicted (human pro-myostatin [4]; Peak 1): >6.01 kDa | Observed Molecular Weight (human pro-myostatin [4]; Peak 2): 302.9 kDa | Predicted Molecular Weight (human pro-myostatin [4]; Peak 2): 329.58 kDa | Difference Observed vs. Predicted (human pro-myostatin [4]; Peak 2): <26.68 kDa | Ka (human pro-myostatin [2]): 2.84e+06 M⁻¹ s⁻¹ | Kd (1/s) (human pro-myostatin [2]): 0.000116 s⁻¹ | Ka (cyno pro-myostatin): 2.86e+06 M⁻¹ s⁻¹ | Kd (1/s) (cyno pro-myostatin): 0.000109 s⁻¹ | Ka (murine pro-myostatin): 3.01e+06 M⁻¹ s⁻¹ | Kd (1/s) (murine pro-myostatin): 0.000162 s⁻¹
B2: Ab133: anti-pro/latent myostatin antibody; CDR sequences in Table 2d (antibody)
heavy: EVQLVESGGGLVQPGGSLRLSCAASGFTFSSYGMSWVRQAPGKGLELVASFTGSGGAYYPDSVKGRFTISRDNAKNSLYLQMNSLRAEDTAVYYCARDLLIRFLEWSHYYGMDVWGQGTTVTVSSASTKGPSVFPLAPCSRSTSESTAALGCLVKDYFPEPVTVSWNSGALTSGVHTFPAVLQSSGLYSLSSVVTVPSSSLGTKTYTCNVDHKPSNTKVDKRV[human IgG4 Fc with S228P (EU numbers) left out]
light: B1 light with T56V, A60V, P61S, I63V, M94Q, A96Q, F99Y, R101G, P102T
SEC-MALS Result (kDa) (human pro-myostatin [4]; input ratio mAb:pro-myostatin 1:1 (peak 1)): 405 kDa | SEC-MALS Result (kDa) (human pro-myostatin [4]; input ratio mAb:pro-myostatin 1:1 (peak 2)): 302.9 kDa | aggregation behavior by AC-SINS [1]: did not display aggregation behavior | accumulation of myostatin in serum of dosed subjects, compared with apitegromab (total myostatin): reduced accumulation of circulating latent myostatin | body weight ([3]; fourth experiment, FIG. 10A): prevented dexamethasone-induced weight loss | lean mass by qNMR ([3]; fourth experiment, FIG. 10B): attenuated the loss of lean mass
